Article PMC4336329 (PLoS ONE, 2015)
The whole screen tested about 310,000 compounds, of which about 2,200 (0.71%) showed an effect of 50% or more. Effects have a minus sign here. This is one part of the list.

Biological target: human ether-à-go-go-related gene (hERG) potassium channel (human, UniProt Q12809)
Assay: primary screen, population patch clamp on CHO cells stably expressing hERG

Sequence of human ether-à-go-go-related gene (hERG) potassium channel (Q12809 whole entry, looked up): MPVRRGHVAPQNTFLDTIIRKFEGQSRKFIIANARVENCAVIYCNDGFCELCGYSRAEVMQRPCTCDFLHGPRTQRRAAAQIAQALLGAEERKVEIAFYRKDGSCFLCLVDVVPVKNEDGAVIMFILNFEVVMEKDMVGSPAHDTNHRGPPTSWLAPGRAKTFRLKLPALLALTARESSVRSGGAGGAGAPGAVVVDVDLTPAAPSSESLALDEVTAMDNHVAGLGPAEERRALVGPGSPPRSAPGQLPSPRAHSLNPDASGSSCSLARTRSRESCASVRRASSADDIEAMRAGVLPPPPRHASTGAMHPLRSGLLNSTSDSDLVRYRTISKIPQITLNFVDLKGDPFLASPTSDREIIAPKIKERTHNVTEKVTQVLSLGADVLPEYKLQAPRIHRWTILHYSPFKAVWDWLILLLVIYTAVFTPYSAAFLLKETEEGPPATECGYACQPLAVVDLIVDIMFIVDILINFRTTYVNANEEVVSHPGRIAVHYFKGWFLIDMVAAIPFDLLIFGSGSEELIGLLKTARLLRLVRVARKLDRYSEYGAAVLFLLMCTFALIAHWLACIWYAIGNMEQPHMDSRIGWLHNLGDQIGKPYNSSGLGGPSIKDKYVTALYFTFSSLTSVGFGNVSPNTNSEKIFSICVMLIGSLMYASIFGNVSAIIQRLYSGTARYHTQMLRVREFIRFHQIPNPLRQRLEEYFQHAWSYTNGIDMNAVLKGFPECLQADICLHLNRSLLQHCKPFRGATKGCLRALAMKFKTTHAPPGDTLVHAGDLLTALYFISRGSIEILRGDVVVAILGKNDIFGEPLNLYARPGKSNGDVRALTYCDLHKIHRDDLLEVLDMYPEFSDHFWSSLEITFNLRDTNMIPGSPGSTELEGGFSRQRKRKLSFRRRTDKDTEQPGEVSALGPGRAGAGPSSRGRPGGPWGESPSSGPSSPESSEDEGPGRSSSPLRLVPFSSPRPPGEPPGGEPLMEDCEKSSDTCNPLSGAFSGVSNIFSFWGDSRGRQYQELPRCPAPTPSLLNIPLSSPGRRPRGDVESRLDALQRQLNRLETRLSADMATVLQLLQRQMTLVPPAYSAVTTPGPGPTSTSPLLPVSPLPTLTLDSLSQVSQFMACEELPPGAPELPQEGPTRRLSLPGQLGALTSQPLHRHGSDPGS

Compound | hERG current change (%, negative = inhibition) at 1uM [%]
Cc1csc(NC(=O)CN2C(=O)c3ccccc3C2=O)c1C(N)=O | 8.69
CCN(CCCNC(=O)Cn1ncc2c([nH]c3ccc(C)cc32)c1=O)Cc1ccccc1 | 3.19
O=S(=O)(c1ccc(NC(=S)NN=C2CCCCC2)cc1)N1CCOCC1 | 6.83
CCc1nn(CC(=O)NCCCN(CC)c2cccc(C)c2)c(=O)c2cc3occc3n12 | 9.35
COC(=O)c1cc(OC)c(OC)cc1NC(=S)N1CCN(Cc2ccccc2)CC1 | 9.85
COc1ccccc1NC(=O)CSc1nnc(COc2ccccc2OC)n1C | -1.07
CCn1c(SCC(=O)N2CCN(C(=O)c3ccco3)CC2)nnc1C(C)C | 14.4
Cc1noc(C)c1C(=O)OCC(=O)NC1CC1 | 4.21
CC(C)N(Cc1ccco1)/N=C/c1c(O)n(Cc2ccccc2)c(=O)[nH]c1=O | 6.32
CCCCn1c(=O)n(CC(O)c2ccccc2)c(=O)c2c1ncn2C1CCCC1 (centres unmarked) | -7.81
O=c1ccc(-c2ccc(S(=O)(=O)NCC3CCN(Cc4ccccc4F)CC3)s2)n[nH]1 | -22.1
O=S(=O)(c1ccc2c(c1)N(Cc1ccc(Cl)cc1)C1CCCN21)N1CCOCC1 (centres unmarked) | 5.03
Cc1ccc(C)c(NS(=O)(=O)c2ccc3[nH]c(=O)[nH]c3c2)c1 | 10.9
Cc1cc(C)n2nc(C(=O)OCC(=O)Nc3ccc(F)cc3F)nc2n1 | 18.4
COc1cccc(/C=C2\N=C(SC)SC2=O)c1OC | 4.18
CCOC(=O)Cc1c(C)nc2c(-c3ccc(Cl)cc3)c(C)nn2c1C | 12.6
CN(C)CCCn1c(SCc2c(Cl)cccc2Cl)nnc1-c1ccncc1.O=C(O)C(=O)O | 7.97
O=C(NCCCN1CCOCC1)/C(=C/c1ccc(F)cc1)NC(=O)c1ccccc1 | -46.5
O=C(c1cc([N+](=O)[O-])ccc1N1CCOCC1)N1CCN(c2ccccc2)CC1 | 7.19
CCc1cc2c(SCC(=O)c3cccs3)ncnc2s1 | 12.6
CC(CN1CCOCC1)C(=O)c1ccccc1.Cl (centres unmarked) | 18.1
Cn1nnnc1CCOCCc1nnnn1C | 3.65

Compound | hERG current change (%, negative = inhibition) at 1uM [%]
CCOC(=O)[C@@H]1[C@H]2COc3cc(OC)ccc3[C@H]2N2C(=O)N(c3ccc(F)cc3)C(=O)[C@@]12C | 12
CCOC(=O)Cn1c(=O)oc2cc(S(=O)(=O)NCCc3ccc(C)cc3)ccc21 | 4.25
COc1ccc(C(C(N)=O)c2ncc(C(F)(F)F)cc2Cl)cc1OC (centres unmarked) | -2.83
COc1nc(OC)nc(N2CCC(C(=O)NC3CCCCCC3)CC2)n1 | 10.1
O=C(NC(=S)NNS(=O)(=O)c1ccc(Cl)cc1)c1cccnc1 | 13.6
O=[N+]([O-])c1ccc(-c2csc(N3CCCCCC3)n2)cc1 | 11.8
Cc1cc(C)nc(SCc2ccc(C(=O)O)o2)n1 | 12.6
O=C1CC2(CCN(C(=O)COc3ccc(Cl)cc3)CC2)Oc2ccccc21 | -70.4
COc1cc(C)ccc1OCCOc1c(Cl)cc(Cl)cc1Cl | 5.65
O=C(Nc1ccc(S(=O)(=O)Nc2ncccn2)cc1)c1cccnc1 | 13
C=CCSc1nnc(-c2ccncc2)n1-c1ccc(OCC)cc1 | -2.13
CCCCCCc1cc2cc(C(=O)OCC)c(=O)oc2cc1O | 13.7
CC(C)(C)NC(=O)C1c2ccccc2Oc2ccccc21 | 14
CCCCCCN1N=C(C)C(C(=O)c2ccc(Cl)cc2)C1=O (centres unmarked) | 13.3
Cc1ccc(S(=O)(=O)c2cc(C#N)c(=O)[nH]c2N)cc1 | 18
CCc1ccc(C(=O)CN2C(=O)NC3(CCOc4ccccc43)C2=O)s1 (centres unmarked) | 5.13
Nc1ccc(S(=O)(=O)Nc2nc(-c3ccccc3)cc(-c3ccccc3)n2)cc1 | 17.6
COc1ccc(N2CCN(C(=O)c3ccc(C(C)(C)C)cc3)CC2)cc1 | 9.86
C[C@@H](C(=O)Nc1ccc2c(c1)OCCO2)n1c(=O)[nH]c2ccccc2c1=O | 18.8
N#Cc1ccccc1S(=O)(=O)N1CCN(c2cnccn2)CC1 | -0.756
O=C(NCCN1CCOCC1)C1CCC(CNS(=O)(=O)c2ccccc2)CC1 (centres unmarked) | 6.14
COC(=O)N1C/C=C\C(c2ccc(OC)cc2)N(Cc2ccc(F)cc2)C(=O)C1 (centres unmarked) | 12.3
